Measurements published in PMC4336329 (PLoS ONE, 2015).
Hit rate of the full screen: of about 310,000 compounds, about 14,000 (4.5%) showed an effect of 50% or more. Effects have a minus sign here. The list shows a part of the results.

The compounds below were run against human ether-à-go-go-related gene (hERG) potassium channel (human, UniProt Q12809) (assay: primary screen, population patch clamp on CHO cells stably expressing hERG).
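Also: peak tail current of the secondary pulse compared with the same well before compound.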

Chain of human ether-à-go-go-related gene (hERG) potassium channel (Q12809 whole entry, looked up): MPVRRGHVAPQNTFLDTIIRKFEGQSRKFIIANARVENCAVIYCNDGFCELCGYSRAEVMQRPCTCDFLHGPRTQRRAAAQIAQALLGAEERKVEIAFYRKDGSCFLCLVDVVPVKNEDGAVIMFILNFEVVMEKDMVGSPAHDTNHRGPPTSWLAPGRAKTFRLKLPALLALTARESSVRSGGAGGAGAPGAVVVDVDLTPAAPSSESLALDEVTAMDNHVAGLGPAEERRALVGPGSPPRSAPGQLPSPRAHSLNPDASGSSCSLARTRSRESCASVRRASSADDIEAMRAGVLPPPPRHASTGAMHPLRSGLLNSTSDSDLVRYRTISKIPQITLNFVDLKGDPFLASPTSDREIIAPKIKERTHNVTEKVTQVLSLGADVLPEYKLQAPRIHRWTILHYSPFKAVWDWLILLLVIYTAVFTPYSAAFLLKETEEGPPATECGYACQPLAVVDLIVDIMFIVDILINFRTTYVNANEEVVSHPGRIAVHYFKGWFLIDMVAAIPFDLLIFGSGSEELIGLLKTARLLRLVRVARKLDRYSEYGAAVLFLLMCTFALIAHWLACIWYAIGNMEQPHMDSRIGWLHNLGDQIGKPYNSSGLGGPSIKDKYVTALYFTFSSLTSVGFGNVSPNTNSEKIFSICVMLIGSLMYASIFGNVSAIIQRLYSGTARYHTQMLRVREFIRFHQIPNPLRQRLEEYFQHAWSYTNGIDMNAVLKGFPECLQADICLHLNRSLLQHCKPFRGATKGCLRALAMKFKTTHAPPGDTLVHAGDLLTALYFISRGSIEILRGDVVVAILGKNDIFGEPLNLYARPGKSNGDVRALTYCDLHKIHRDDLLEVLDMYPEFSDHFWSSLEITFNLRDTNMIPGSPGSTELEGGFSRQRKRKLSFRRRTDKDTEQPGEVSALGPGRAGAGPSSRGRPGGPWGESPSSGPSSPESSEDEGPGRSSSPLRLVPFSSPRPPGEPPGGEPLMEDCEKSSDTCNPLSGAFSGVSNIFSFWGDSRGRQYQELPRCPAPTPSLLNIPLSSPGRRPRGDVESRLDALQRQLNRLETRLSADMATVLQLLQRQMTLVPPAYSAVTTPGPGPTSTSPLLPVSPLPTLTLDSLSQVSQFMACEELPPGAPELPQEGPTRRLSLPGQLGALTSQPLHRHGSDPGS

Point of comparison: `CCn1cc(C(=O)NCC2CCCO2)c2cc(OC)c(OC)cc2c1=O` (centres unmarked), “hERG current change (%, negative = inhibition) at 10uM” value 19.4%. Against it:
- Cc1ccc(C2=NN(C(=O)CSc3nc(N)cc(N)n3)C(c3ccco3)C2)cc1 (centres unmarked) — lower, 6.66%
- Nn1c(Cc2cccc3ccccc23)nnc1SCC(=O)N1CC(=O)Nc2ccccc21 — lower, 7.01%
- COc1cccc(NC(=O)NNS(=O)(=O)c2ccc(OC)cc2OC)c1 — lower, -3%
- Cc1ccc(S(=O)(=O)/N=C(\c2ccc(F)cc2)n2c(C)nc3ccccc32)cc1 — lower, 11.9%
- COC(=O)c1ccc2c(=O)n(CCCCCC(=O)NCc3ccc4c(c3)OCO4)c(=O)[nH]c2c1 — lower, -31.7%
- COc1ccnc2c1c(=O)n(Cc1ccc(Cl)cc1Cl)c(=O)n2C — lower, 9.73%
- CC(c1ccccc1)c1nnc(NC(=O)Nc2ccccc2)s1 (centres unmarked) — lower, 2.63%
- COc1ccccc1N1CCN(C(=O)c2cccc(C(=O)N3CCN(c4ccccc4OC)CC3)c2)CC1 — lower, -3.62%
- Cc1ccc(NC(=O)c2cc3c(=O)oc4ccc(C)cc4c3s2)nc1 — lower, 11%
- O=[N+]([O-])c1ccc(N2CCNCC2)cc1Sc1nc2ccccc2[nH]1 — lower, -27%
- Cc1c(S(=O)(=O)NC2CCCCCC2)c(=O)n(C)c(=O)n1C — lower, -21.5%
- Cl.Clc1cccc(CNCCCSc2ncccn2)c1Cl — lower, 4.57%
- COc1ccc(CC(=O)Nc2ccccc2-c2ccccc2)cc1OC — lower, -0.946%
- CC1CCC2(CC1)NC(=O)N(NC(=O)CSc1nnc(NC3CC3)s1)C2=O (centres unmarked) — lower, 1.89%
- O=C(NCc1ccc(F)cc1)c1c2c(nc3ccccc13)CCC2 — lower, -21.1%
- Cc1ccc(-c2nnn(CC(=O)N(Cc3cccs3)C(C(=O)NC(C)(C)C)c3ccco3)n2)o1 (centres unmarked) — lower, 14.4%
- Cc1ccc(S(=O)(=O)N2CCOCC2)cc1NC(=O)CSc1ccccn1 — lower, 9.86%
- Cn1c(-c2ccccc2)c(CCO)c2ccccc21 — lower, 1.64%
- CCC(C)C(NC(=O)C1CCC(C)CC1)C(=O)NC(C(=O)OC)C(C)C (centres unmarked) — lower, -0.903%
- O=C(/C=C/c1ccccc1)NC(=S)Nc1ccc(N2CCOCC2)c(Cl)c1 — lower, 18.9%
- O=C(Nc1nnc(C2CC2)s1)C1Cc2ccccc2CN1C(=O)c1ccco1 (centres unmarked) — lower, -5.51%
- O=C(Nc1cccc([N+](=O)[O-])c1)c1[nH]ncc1Cl — lower, -31.2%
- CC(=O)N1CCc2c(sc(NC(=O)c3ccc(S(=O)(=O)N(C)C)cc3)c2C#N)C1 — lower, 11.1%
- O=C(O)c1ccc(N2CCS(=O)(=O)CC2)cc1 — higher, 34.2%
- CCOc1ccc(S(=O)(=O)N2CCN(C(=O)C3CSC4(C)CCC(=O)N34)CC2)cc1 (centres unmarked) — lower, -6.06%
- Cn1cnc([N+](=O)[O-])c1Oc1cccc2ccccc12 — lower, -3.5%
- CCn1c(O)c(C=NCc2cccs2)c(=O)[nH]c1=O — lower, -6.15%
- COc1cccc(CNn2c(-c3cccc(C)c3)nc3ccccc3c2=O)c1 — lower, -9.77%
- CCOC(=O)N1CCN(S(=O)(=O)c2ccc3c(c2)CC(C)N3C(C)=O)CC1 (centres unmarked) — lower, 8.43%
- Cc1ccc(C)c(N(CC(N)=O)S(C)(=O)=O)c1 — lower, 1.35%
- COc1cccc2c1cc1c(=O)n(CC(=O)NCCCN3CCCCC3)nc(C)n12 — lower, 18.7%
- O=C(NC(=S)NC1CCCc2ccccc21)c1ccc(F)cc1 (centres unmarked) — lower, 11%
- O=[N+]([O-])/C=C1\CCCCCN1 — lower, 7.65%
- O=C1CCC(=O)N1CCSC(=S)N1CCOCC1 — lower, 8.78%
- O=C1c2cccnc2C(Nc2ccc(Br)cc2)N1Cc1cccs1 (centres unmarked) — lower, 14.2%
- O=C1CCC(C(=O)Nc2ccc([N+](=O)[O-])cc2)N1 (centres unmarked) — lower, -2.22%
- CCOCCCNC(=O)C(NC(=O)CNC(C)=O)c1ccc(Cl)cc1 (centres unmarked) — lower, 9.12%
- CC1CCN=C(N)S1.Cl (centres unmarked) — lower, 4.14%
- CN(CC(=O)Nc1ccc(OC(F)(F)F)cc1)S(=O)(=O)c1cnc[nH]1 — lower, 4.06%
- O=c1[nH]c2cc(Br)cnc2nc1/C=C(\O)c1ccc(F)cc1 — lower, 10.9%
- Cc1ccc(OCC(=O)O/N=C(\N)c2ccccn2)cc1C — lower, -11.3%
- O=C(Cn1cnc2cc([N+](=O)[O-])ccc2c1=O)Nc1ccc2c(c1)CCC2 — lower, 14.9%
- Cc1[nH]c(=O)[nH]c(=O)c1S(=O)(=O)Nc1ccc(F)cc1Cl — lower, 17.1%
